In PubChem BioAssay AID1346428 (National Center for Advancing Translational Sciences (NCATS), 2018) one finds activation data, which are given here for 83 compounds.

Several values for one entry are separate records, joined by “and”; a condition that tells them apart may be missing. Equal values may be shown once. About 1,200 (2.5%) of roughly 48,000 compounds were called active. About 2% were inconclusive and are not listed.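 How the source made its calls: active means activation of at least 60% and not above a set upper limit (about 1 call in 100 departs from these limits); inconclusive means activation of 40% to 60%, or above that upper limit; inactive means activation under 40%.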 Some of the results follow.

The assay has as its target Probable G-protein coupled receptor 32 (Homo sapiens) (UniProt O75388). The assay can be described thus: qHTS for Agonists of Human Resolvin D1 Receptor DRV1. Further: 0% is about no effect. As to conditions: CHO-K1 GPR32 beta-arrestin PathHunter luminescence, 90 min; at 76.9 µM; stronger effect = higher value; zero percent set by DMSO-only wells. The method in brief: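 Engineered CHO-K1 line co-expressing GPR32-ProLink and EA-beta-arrestin. Compound treatment lasted 90 min at 37 °C. Luminescence was recorded after 1 h with substrate at ambient temperature, relative to DMSO basal wells.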
UniProt O75388, sequence (O75388 whole entry, looked up): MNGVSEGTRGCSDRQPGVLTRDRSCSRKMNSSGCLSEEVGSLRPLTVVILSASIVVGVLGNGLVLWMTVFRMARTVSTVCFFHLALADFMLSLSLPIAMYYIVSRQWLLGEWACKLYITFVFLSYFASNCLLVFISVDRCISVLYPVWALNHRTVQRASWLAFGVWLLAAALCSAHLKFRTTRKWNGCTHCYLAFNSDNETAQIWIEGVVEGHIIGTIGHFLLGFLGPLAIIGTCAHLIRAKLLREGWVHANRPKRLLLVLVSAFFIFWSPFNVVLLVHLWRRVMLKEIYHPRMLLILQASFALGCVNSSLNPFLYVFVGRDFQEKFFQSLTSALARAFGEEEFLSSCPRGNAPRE
A general note: In qHTS, concentration-response curves come from the screen itself.
As to `CC(C)Oc1ccc(CNC(=O)CCCN2C(=O)c3cccnc3Oc3ccc(Cl)cc32)cc1`, the activation was inactive: -20.1%.

With `CCOC(=O)c1scc(-c2ccccc2)c1S(=O)(=O)Nc1cc(OC)cc(OC)c1`, the activation is inactive: -35.9%.

For the compound `COc1ccc(-n2nc(C(=O)N(C)c3cc(C)ccc3C)c3c4ccccc4n(C)c3c2=O)cc1Cl`, the activation is inactive: -1.52%.

With `O=C(Cn1cc(SCc2c(F)cccc2Cl)c2ccccc21)N1CCCCCC1`, the activation was inactive: -24.9%.

As for `CCOc1ccc(NS(=O)(=O)c2ccc(-c3cc(C)no3)s2)cc1`, the activation was inactive: -5.7%.

For the compound `Cc1ccc(C)c(NC(=O)c2cnn(-c3cccc(F)c3)c2C2CCN(C(=O)OC(C)(C)C)CC2)c1`, the activation was inactive: -6.04%.

For `CCN(c1ccccc1)S(=O)(=O)c1ccc(NC(=O)c2cc(=O)c3cc(C)cc(C)c3o2)cc1`, the activation was inactive: 30.6%.

Take `Cc1c(Cl)cccc1NC(=O)c1cnc2sc(N3CCOCC3)nn2c1=O`: the activation is inactive: -8.5%.

On to `CCC(=O)N1c2ccccc2CC1C(=O)NCCc1ccccc1C` (stereo not drawn), for which the activation was inactive: -8.47%.

As to `O=C(Nc1ccc2nn(-c3ccccc3)nc2c1)c1cc2ccccc2o1`, the activation was inactive: 5.78%.

Turning to `Cc1ccc(S(=O)(=O)Nc2ccc3c(c2)CCCN3C(=O)c2cccs2)cc1`, the activation was inactive: -20.1%.

Take `Cc1cc2ccccc2n1CCNC(=O)c1cccc(Br)c1`: the activation is inactive: 25.1%.

As for `O=C(CSc1cn(CC(=O)N2CCOCC2)c2ccccc12)Nc1ccccc1F`, the activation was inactive: -14.4%.

`COc1ccc2oc(=O)cc(CN3CCN(Cc4ccccc4)CC3)c2c1`: the activation was inactive: -10.6%.

`COc1ccc(OC)c(CCNC(=O)CCCn2c(=O)c3cccn3c3ccccc32)c1`: the activation was inactive: -13.2%.

On to `O=C(NCc1cccc(Cl)c1)C1CCN(c2nn3cc(-c4ccc(F)cc4)nc3s2)CC1`, for which the activation is active: 62.3%.

For the compound `COc1ccc(-c2cn3nc(N4CCCC(C(=O)Nc5cc(Cl)ccc5OC)C4)sc3n2)cc1` (stereo not drawn), the activation is inactive: -9.3%.

Consider `Cc1ccc(CNC(=O)c2c(-c3ccc(F)cc3F)noc2C)o1`, for which the activation is inactive: -16.2%.

Turning to `Cc1cc(C)c(NC(=O)Cn2nnc(C(=O)NCc3cccs3)c2N)c(C)c1`, the activation was inactive: -0.838%.

In the case of `CCN(CC)c1ccc2cc(-c3nc(-c4ccccc4)no3)c(=O)oc2c1`, the activation was inactive: 7.79%.

As to `CSc1ccc(CNC(=O)c2ccc3c(c2)N(C)C(=O)C2CCCCN32)cc1` (stereo not drawn), the activation is inactive: -7.41%.

Regarding `CC(C)COc1ccc(C(=O)Nc2scc(-c3ccc(Br)cc3)c2C(=O)OC(C)C)cc1`, the activation is inactive: -20.7%.

In the case of `CCOC(=O)c1cc2c(=O)n3ccccc3nc2n(Cc2ccco2)c1=NC(=O)c1ccc(OC)cc1`, the activation is inactive: -28.8%.

For the compound `COc1ccc(CC(=O)NCC(c2ccc(N(C)C)cc2)N2CCOCC2)cc1OC` (stereo not drawn), the activation is inactive: -8.66%.

In the case of `Cc1ccccc1OCc1ccc(-c2nc(C#N)c(N3CCCCC3)o2)o1`, the activation is inactive: -28.2%.

As to `COc1cc(NC(=O)Cn2c(=O)n(-c3ccccc3)c(=O)c3c4c(sc32)CCCC4)cc(OC)c1`, the activation is inactive: -10.1%.

Turning to `O=c1ccc2cc(S(=O)(=O)NCc3ccc(Cl)cc3)ccc2[nH]1`, the activation is inactive: 4.57%.

In the case of `O=C(NCc1ccccc1)c1cccc(N2CCCS2(=O)=O)c1`, the activation was inactive: 10.9%.

Regarding `COc1ccc(C(=O)COC(=O)CCCC(=O)Nc2ccc(C(C)=O)cc2)cc1`, the activation was inactive: 18.9%.

`CCOc1ccc(-n2nc(CO)c(C(=O)NCC(c3ccccc3)c3ccccc3)n2)cc1`: the activation was inactive: -9.37%.

As to `Cc1nc2cccnc2n1C1CCN(C(=O)Nc2ccccc2C(F)(F)F)CC1`, the activation was inactive: -11.3%.

With `COc1ccc(CCN(C)CCCN2CCc3cc(OC)c(OC)cc3CC2=O)cc1OC`, the activation is inactive: -47.7%.

`CNS(=O)(=O)c1cn(CC(=O)N2CCN(c3ccc(Cl)cc3)CC2)cc1S(=O)(=O)NC`: the activation was inactive: -3.4%.

Take `Cc1cc(C)c(NC(=O)COCc2cc(-c3cccs3)on2)c(C)c1`: the activation is inactive: -10.7%.

Take `COC(=O)c1scc(-c2ccc(C)cc2)c1S(=O)(=O)Nc1ccc(NC(C)=O)cc1`: the activation is inactive: -7.43%.

For `COc1ccc(-c2cn3nc(SCC(=O)Nc4ccccc4F)ccc3n2)cc1`, the activation was inactive: -12.5%.

In the case of `CCc1cccc(N2C(=O)CSC23C(=O)N(Cc2ccccc2F)c2ccccc23)c1` (stereo not drawn), the activation is inactive: -4.12%.

Take `COc1ccc(-n2ncc(C(=O)NCc3ccc4c(c3)OCO4)c2C2CCN(C(=O)OC(C)(C)C)CC2)cc1`: the activation was inactive: -18.9%.

For `Cc1cccc(OCC(=O)Nc2cccc(C(=O)OCc3cc(=O)n4c(C)csc4n3)c2)c1`, the activation was inactive: -12.9%.

For `COc1ccc(S(=O)(=O)N(CC(=O)NCCSc2ccccc2)c2ccc(Cl)cc2)cc1`, the activation was inactive: 6.94%.

As to `O=C(CSc1nccn1Cc1ccc(F)cc1)NCc1ccccc1`, the activation is inactive: -7.78%.

As to `COC(=O)c1sccc1S(=O)(=O)N(CC(=O)Nc1cc(C)cc(C)c1)c1ccc(Cl)cc1`, the activation is inactive: -3.24%.

As to `COc1ccc(-n2c(SCC(=O)NCc3ccccc3)nc3ccsc3c2=O)cc1`, the activation is inactive: -10.9%.

Consider `COc1ccc(CNC(=O)CN2C(=O)COc3ccc(S(=O)(=O)N4CCCCCC4)cc32)cc1`, for which the activation was inactive: -17.5%.

`Cc1ccc(C2Nc3ccccc3-n3c(-c4ccccc4)c4c(=O)n(C)c(=O)n(C)c4c32)cc1` (stereo not drawn): the activation is inactive: -3.35%.

With `COc1ccc(NC(=O)c2nn(C)c3c2CSc2ccc(C)cc2-3)cc1OC`, the activation was inactive: 26.1%.

Regarding `COCCCNC(=O)c1ccc(Cn2c(=O)c3ccccc3n(Cc3ccc(C)cc3)c2=O)cc1`, the activation was inactive: -6.72%.

In the case of `COc1cccc(NC(=O)c2ccc3c(=O)n4nc(Nc5ccccc5OC)sc4nc3c2)c1`, the activation is inactive: 2.94%.

In the case of `COc1ccc(CNC(=O)c2ccc(CNS(=O)(=O)c3ccc(OC)cc3)cc2)cc1`, the activation was inactive: -1.21%.

On to `CCOC(=O)c1ccc(NC(=O)CC2Nc3cc(C)c(C)cc3NC2=O)cc1` (stereo not drawn), for which the activation is inactive: -33.3%.

Consider `COCCOC(=O)Cn1nnc2sc(-c3ccccc3)cc2c1=O`, for which the activation was inactive: 0.914%.

On to `Cc1nn(S(=O)(=O)c2ccc(C(C)C)cc2)c(C)c1S(=O)(=O)N1CCCCC1`, for which the activation was inactive: 24.9%.

With `Cc1ccc2c(c1)-c1c(cnn1CC(=O)N1CCN(c3cccc(C(F)(F)F)c3)CC1)CO2`, the activation was inactive: 1.75%.

For `CC(=O)N1CCCc2cc(S(=O)(=O)N3CCCC(C(=O)N4CCN(c5ccccc5F)CC4)C3)ccc21` (stereo not drawn), the activation is inactive: 40.9%.

`Cc1nc(SCC(=O)OC(C)(C)C)c2c3c(sc2n1)CCCC3`: the activation is inactive: 47.8%.

Take `CCc1cccc(C)c1NS(=O)(=O)c1ccc2c(c1)NC(=O)C(C)C(=O)N2` (stereo not drawn): the activation was inactive: -3.63%.

With `CCOc1ccc(-n2c(=O)c3c4c(sc3n(CC(=O)NCCCOC)c2=O)CCCCC4)cc1`, the activation was inactive: 4.09%.

In the case of `Cc1ccccc1Nc1c(-c2ccc(O)cc2)nc2c(C)cccn12`, the activation is inactive: -4.01%.

Regarding `COc1cccc(CNC(=O)CSc2nnc(C)c3c(C)n(-c4ccccc4)nc23)c1`, the activation is inactive: -4.3%.

With `NC(=O)c1cn(Cc2c(F)cccc2F)nn1`, the activation is inactive: -11.7% and inactive: 4.34%.

Consider `COc1cc2c(N3CCN(C(=O)Nc4ccc(OC(C)C)cc4)CC3)ncnc2cc1OCCCN1CCCCC1`, for which the activation was inactive: 3.66%.

With `CCC(C(=O)Nc1ccc(F)cc1F)n1nc(-c2ccccc2)c2c(c1=O)CCCC2` (stereo not drawn), the activation was inactive: -22.2%.

As for `COc1ccc(NC(=O)CCS(=O)(=O)c2cc3c4c(c2)CCN4C(=O)CC3)cc1OC`, the activation is inactive: 1.99%.

As to `CC(=O)N1c2ccccc2CC1C(=O)N1CCN(c2cc(Cl)ccc2C)CC1` (stereo not drawn), the activation is inactive: 47.9%.

In the case of `Cc1nc(N)c(S(=O)(=O)c2ccccc2)c(Nc2ccc(Br)cc2)n1`, the activation is inactive: -0.503%.

As for `COc1cccc(/C=C/c2nc3ccccc3c(=O)n2-c2ccc(C)c(C)c2)c1OC`, the activation was inactive: -2.7%.

In the case of `COc1ccc(Cl)cc1S(=O)(=O)N1CCC(c2ccncc2)CC1`, the activation was inactive: 9.74%.

Regarding `COc1ccc(NC(=O)c2ccco2)cc1NC(=O)COc1cc(C)ccc1C(C)C`, the activation was inactive: 32.8%.

On to `CCOc1ccc(NC(=O)c2c(NC(=O)c3ccncc3)sc3c2CCC(C(C)(C)C)C3)cc1` (stereo not drawn), for which the activation is inactive: 5.53%.

For `COc1ccc(-c2nnc(SCC(=O)Nc3ccc(C)c(Cl)c3)nc2-c2ccc(OC)c(OC)c2)cc1OC`, the activation is inactive: -26.2%.

For the compound `O=C(c1ccc(F)cc1)N1CCN(CCc2ccncc2)CC1`, the activation was inactive: 3.74%.

As to `Cc1cccc(OCC(=O)NCc2ccc3c(c2)CCN3C(=O)c2ccc(Cl)cc2)c1`, the activation was inactive: 6.93%.

Turning to `O=C(c1cccn1-c1nnc(N2CCCC2)s1)N1CCN(c2ccc(F)cc2)CC1`, the activation is inactive: -12.3%.

Regarding `O=C(Cn1cc(SCc2ccc(Cl)cc2)c2ccccc21)N1CCCC1`, the activation is inactive: -18.1%.

As for `CC(=O)Nc1ccc(NC(=O)CN2C(=O)CCc3cc(S(=O)(=O)N4CCCCC4)ccc32)cc1`, the activation was inactive: 9.21%.

Regarding `Cc1cccc(CNC(=O)CN2CC(C)Sc3ccccc32)c1` (stereo not drawn), the activation was inactive: -5.8%.

For the compound `O=C(Nc1ccc(F)cc1)Nc1nnc(SCC(=O)N2CCCCC2)s1`, the activation is inactive: 2.04%.

Regarding `COc1cccc(NC2=CC(c3ccc(C(C)C)cc3)N(c3cccc(OC)c3)C2=O)c1` (stereo not drawn), the activation was inactive: -23.7%.

With `Cc1c(Cl)cccc1-n1nnc(-c2nc(-c3ccc4c(c3)OCO4)no2)c1C`, the activation is inactive: -2.24%.

In the case of `Cc1c(C(=O)N(Cc2cccc(Cl)c2)Cc2ccco2)oc2ccccc12`, the activation was inactive: 0.249%.

For `COc1ccc(C)cc1NS(=O)(=O)c1cc(Br)cc2c1N(C(C)=O)C(C)C2` (stereo not drawn), the activation was inactive: -7.96%.

In the case of `O=C(OCC(O)CO)c1ccccc1Nc1ccnc2cc(Cl)ccc12` (stereo not drawn), the activation is inactive: 18.4%.

`CCN(CC)C(=O)c1sc2c(c1C)c(=O)n(Cc1ccccc1)c(=O)n2CC(=O)Nc1ccc(OC)cc1`: the activation was inactive: -19.6%.
